Measured values published in the supplement of paper PMC11417369.
Some of the results follow.

Tested on: PfHDP1 homeodomain (GST-tagged)
Assay: gcPBM binding intensity (ln(normalized median fluorescence intensity)); higher = stronger DNA binding
Summary of the method: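 DNA-binding domains from P. falciparum, fused to GST and produced in E. coli, were put on an Agilent 4 × 180k double-stranded probe array for 1 h in 1× PBS holding 1% milk, 0.2 mg/ml BSA, 0.5% salmon testes DNA and 0.03% Triton X-100. Probes were primer-extended, 36 bp long and drawn from intergenic genomic regions, with negative controls included. After Alexa488 anti-GST antibody detection and a 488 nm scan, binding intensity was set as the highest Masliner-normalised natural-log median intensity across replicate spots of either probe orientation.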

**Q.** How did the “gcPBM binding intensity (ln)” value turn out when “ATCAGTCGAGATGACAGTACACAGTAGCCAGGAAAT [XGTACX_site4932]” was run?
**A.** Its value is 6.69.

**Q.** With “TATGTAGATAAATAAGCACACACCAAACATATAAAA [CACACA_site1182]” as the sequence, how does the “gcPBM binding intensity (ln)” value read?
**A.** The value was 7.25.

**Q.** How did the “gcPBM binding intensity (ln)” value turn out when “AAAACATTATTCCATACACACCATACTTTTTAATAA [CACACA_site7326]” was run?
**A.** The value was 6.58.

**Q.** For “TAAAATATTATCTACGCACACATTAAAATAAAAAAA [CACACA_site3709]”, which “gcPBM binding intensity (ln)” value is on record?
**A.** Its value is 6.67.

**Q.** Which “gcPBM binding intensity (ln)” value does the source give for “CATTTGCACACGCACACACACATAAAAAGAAAAATA [CACACA_site6297]” here?
**A.** Its value is 10.8.

**Q.** How did the “gcPBM binding intensity (ln)” value turn out when “ATAAAGAAAAGGAACACACAAATATGTAAATATGTA [CACACA_site6356]” was run?
**A.** The value was 6.43.

**Q.** Which “gcPBM binding intensity (ln)” value does the source give for “TTACACATAAATACCATATAAATATAATGCATATCT [CACACA_negctrl_site1731]” here?
**A.** Its value is 6.36.

**Q.** For “AAGGAGCCTATGAACACACACATGTACCTATATTAA [CACACA_site7838]”, which “gcPBM binding intensity (ln)” value is on record?
**A.** Its value is 6.55.

**Q.** With “ATACGTATTTATTTCACACACGTTAAAAAAATAAAA [CACACA_site6027]” as the sequence, how does the “gcPBM binding intensity (ln)” value read?
**A.** Its value is 6.21.

**Q.** For “AGAATGAAATAATATACACACAAAGGAAAAATGTAA [CACACA_site3911]”, which “gcPBM binding intensity (ln)” value is on record?
**A.** The value was 7.09.

**Q.** For “TCTTGACTAAATATATGTACATATATTTTAATAATA [XGTACX_site701]”, which “gcPBM binding intensity (ln)” value is on record?
**A.** The value was 6.5.

**Q.** For “TAAGTGCTTTTCAACTGTACCTTCCATTTATTTATT [XGTACX_site8589]”, which “gcPBM binding intensity (ln)” value is on record?
**A.** The value was 6.39.

**Q.** How did the “gcPBM binding intensity (ln)” value turn out when “ACTACATAATATTTACGTACCTAAAAAATTCTTATA [XGTACX_site509]” was run?
**A.** Its value is 6.5.

**Q.** With “AAAAAAAAAAAAAATACACACGTGAATGTATTGTTT [CACACA_site4856]” as the sequence, how does the “gcPBM binding intensity (ln)” value read?
**A.** The value was 6.51.

**Q.** With “TTCTTATTTTATATTTCACACATTTTTACTATACTT [CACACA_site5817]” as the sequence, how does the “gcPBM binding intensity (ln)” value read?
**A.** The value was 7.22.

**Q.** With “GTATTCAAAAGTGAAACATGCAATAATATATATATA [TGCATGCA_site617]” as the sequence, how does the “gcPBM binding intensity (ln)” value read?
**A.** Its value is 8.5.

**Q.** How did the “gcPBM binding intensity (ln)” value turn out when “AATATAATAATAAAAACACACACGTTGATTGTATTA [CACACA_site2381]” was run?
**A.** The value was 6.21.

**Q.** Which “gcPBM binding intensity (ln)” value does the source give for “TAAAAATTCAATTGCACACGCACATATTTTAATAAG [CACACA_site2014]” here?
**A.** Its value is 9.34.

**Q.** “AAAAAATAGACATATACACACATATGTATTTATAAT [CACACA_site5225]” was tested. Which “gcPBM binding intensity (ln)” value did it give?
**A.** The value was 6.36.

**Q.** How did the “gcPBM binding intensity (ln)” value turn out when “CGTATGCAAGGAACCACACACACACCCATAAATGTA [CACACA_site749]” was run?
**A.** The value was 6.71.

**Q.** Which “gcPBM binding intensity (ln)” value does the source give for “TTTTTTTTTATAAGGTGTACGTAAAATGTGTAGGTC [XGTACX_site3585]” here?
**A.** Its value is 7.48.

**Q.** With “TTAAAAATAAAAAATACACACTCTAGTCCATGTAAC [CACACA_site3640]” as the sequence, how does the “gcPBM binding intensity (ln)” value read?
**A.** Its value is 6.26.

**Q.** For “CCTATAATAAATAATACACACATATTGTAAATATAT [CACACA_site7496]”, which “gcPBM binding intensity (ln)” value is on record?
**A.** Its value is 6.54.

**Q.** How did the “gcPBM binding intensity (ln)” value turn out when “ATGTCATTATATACATGTACGCATATCTGTTTATCC [XGTACX_site3947]” was run?
**A.** Its value is 7.02.

**Q.** How did the “gcPBM binding intensity (ln)” value turn out when ATTTCATATAGTGTAGTGCAATTTTAAGCATCAAGG was run?
**A.** Its value is 9.39.
